# Data reported in PubChem BioAssay AID686971 (National Center for Advancing Translational Sciences (NCATS), 2013).
# In all, about 360,000 compounds went through this assay and about 7,500 (2.1%) were called active. The inconclusive results got no clear call from the source; some entries with a clear call stand among them for comparison. Calls come from the whole dose curve; as a rule, active = well fitted cell-killing curve with a large enough effect; inconclusive = small, poorly fitted or top-dose-only effect, or effect the other way, or another doubt; inactive = no such curve, though single readings can be large or run the other way. Potencies of inconclusive entries are left out as doubtful fits.
# Assay: qHTS for induction of synthetic lethality in tumor cells producing 2HG: qHTS for the HT-1080-IDH1KD cell line;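 for activity, negative = toxicity: 0% = DMSO wells and -100% = cell-free medium wells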
# Details: HT-1080 IDH1 knockdown viability, ATP luminescence, 48 h; activity, negative = toxicity: at 46.1 µM (top of the series) unless noted
# Outline: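 Cytotoxicity counter-line: IDH1KD HT-1080, 48 h, CellTiter-Glo. Curves classed by r2, magnitude and activity.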
# Potency is the fitted concentration of half-maximal effect; tags give direction and shape of the fitted curve.
Compound,Potency,"activity, negative = toxicity"
C/C(=N\NC(=O)COc1ccc(C)cc1Br)c1cc([N+](=O)[O-])cs1,"inconclusive [cytotoxic, partial curve]",
CCOc1ccccc1N1CC(C(=O)NCCOc2ccccc2OC)CC1=O (stereo not given),inactive,
CSc1nc(N(C)C)nc(N(C)C#N)n1,inactive,
Cc1c(C(=O)N(C)C)sc(NC(=O)c2cccc([N+](=O)[O-])c2)c1C#N,inactive,
CC1=NOC(=O)/C1=C/c1ccc(N(C)C)cc1,inactive,
Nc1nn2c(-c3ccccc3)cc(=O)[nH]c2c1N=Nc1ccc(O)cc1,"inconclusive [cytotoxic, partial curve, poor fit]",
COc1cccc(-c2sc3ccc(OC)cc3c2C#CC2(O)CCCCC2)c1,"inconclusive [cytotoxic, single point]",
CN(CC(=O)Nc1cccc(F)c1)C(=O)c1cn(-c2ccccc2)nc1-c1ccc(Cl)cc1,"inconclusive [cytotoxic, single point]",
COc1ccc(-c2csc(NC(=O)c3ccccc3C(=O)O)n2)cc1,inactive,
CCN(CC(=O)NC1CCS(=O)(=O)C1)c1ccc(S(C)(=O)=O)cc1[N+](=O)[O-] (stereo not given),inactive,
CN(C)c1ccc(NC(=O)Nc2nc(C(N)C3CCCCC3)cs2)cc1 (stereo not given),"inconclusive [cytotoxic, single point]",
CCCOC(=S)N/C(=N\S(=O)(=O)c1ccccc1)c1ccccc1,"inconclusive [cytotoxic, single point]",
Cn1c(=O)c2c(-c3ccccc3)n(-c3ccc(N)cc3)cc2n(C)c1=O,inactive,
CCSc1nnc(NC(=O)C(C)(C(F)(F)F)C(F)(F)F)s1,"inconclusive [cytotoxic, partial curve]",
O=[N+]([O-])c1ccccc1S(=O)(=O)NCCc1ccncc1,"inconclusive [rising, single point]",
CCN(CC)c1ccc(/C=N/NC(=O)CNC(=O)c2cccs2)cc1,"inconclusive [cytotoxic, single point]",
Cc1cc2cccc(C)c2nc1SCC(=O)NCC1CCCO1 (stereo not given),inactive,
O=C(/C=C\c1ccco1)Oc1cccc2cccnc12,active: 14.6 µM,
COc1ccc(-n2c(C)c([N+](=O)[O-])c3ccc(O)c(CN(C)C)c32)cc1,inactive,
CCOC(=O)N1C=CC(C)=C[C@@H]2[C@@H](N3C(=O)c4ccccc4C3=O)C(=O)N21,,inconclusive: 23.9%
CC1CCN(Cc2c(C(=O)N/N=C/c3cc(Br)ccc3O)nnn2-c2nonc2N)CC1,active: 2.31 µM,
Clc1cccc(Cc2c(-c3ccco3)nc3ccc(Br)cn23)c1,active: 16.4 µM,
O=C(c1ccccc1F)n1c2c(c3ccccc31)CCCC2,active: 14.6 µM,
COc1ccc(CN([C@H](CO)CC(C)C)S(=O)(=O)N(Cc2ccccc2)[C@H](CO)CC(C)C)cc1,active: 6.51 µM,
COc1ccc(CN(CCCN)c2ccc(Br)cn2)cc1,"inconclusive [cytotoxic, partial curve]",

Compound,Potency,"activity, negative = toxicity"
Cc1cccc(C(=O)NC(=S)NCc2cccnc2)c1,inactive,
NS(=O)(=O)c1cccc(NC(=O)CSc2ncc(C(F)(F)F)cc2Cl)c1,inactive,
Cc1ccc(C)c(Cn2nnc3c(=O)[nH]c(C4CCN(C(=O)c5cccs5)CC4)nc32)c1,"inconclusive [cytotoxic, single point]",
O=C(/C=C/c1ccc(Cl)cc1)c1ccc([N+](=O)[O-])o1,active: 13 µM,
COC(=O)c1ccc(-n2cncn2)c(F)c1,,inconclusive: -1.66%
COc1ccc(-c2coc3c(C(=O)NCCN(C)C)cccc23)c(C)c1,active: 16.4 µM,
Cc1nc([N+](=O)[O-])c(Br)n1CC(=O)c1ccc(Br)cc1,"inconclusive [cytotoxic, single point]",
COc1ccc(-c2nc(CN3CCCC(C(=O)NC4CCCC4)C3)c(C)o2)cc1 (stereo not given),inactive,
C/C(=N\NC(=O)c1cc(-c2cccnc2)nc2ccccc12)c1ccc(O)cc1O,"inconclusive [cytotoxic, full curve]",
CCOC(=O)c1c(-c2ccccc2)csc1NC(=O)CSc1nnnn1C,active: 11.2 µM,
Cc1cc(NC(=O)CS(=O)(=O)c2cn(Cc3cccc(Cl)c3)c3ccccc23)no1,"inconclusive [cytotoxic, partial curve]",
COC(=O)Oc1ccc(/C=N/NC(=O)CSCc2ccc(Cl)cc2)cc1OC,inactive,
CC(=O)Nc1cc(-c2ccccc2N(C)C)cn2c(-c3cccc(C(F)(F)F)c3)cnc12,"inconclusive [cytotoxic, single point]",
COc1ccccc1N1CCN(C(=O)c2cc(-c3ccccc3)on2)CC1,inactive,
COc1cc(/C=N\Nc2nc3ccccc3o2)cc(OC)c1OC,"inconclusive [cytotoxic, single point]",
COc1ccc(OC(=O)N(C)C[C@@H]2OCc3cn(nn3)CCCC(=O)N([C@@H](C)CO)C[C@H]2C)cc1,inactive,
CCOC(=O)/C(=N/Nc1ccc(C)cc1)S(=O)(=O)c1ccc(Cl)cc1,,inconclusive: -30.3% [cytotoxic]
CC(Oc1ccc(C#N)cc1)C(=O)N1CC=C(c2ccccc2)CC1 (stereo not given),"inconclusive [cytotoxic, partial curve]",
c1csc(CNc2ccn3nc(-c4ccc(OCCN5CCOCC5)cc4)cc3n2)c1,"inconclusive [cytotoxic, partial curve]",
Cc1ccccc1OCC(=O)Nc1ccc2c(c1)n(C)c(=O)n2C,inactive,
Cc1ccc(NC(=O)CN2C(=O)NC3(CCCCC3)C2=O)cc1S(=O)(=O)N1CCOCC1,,inconclusive: 5.58%
CCn1ncc(C2=NOC(C(=O)NCc3ccc(Cl)cc3)C2)c1C (stereo not given),active: 6.31 µM,
COc1cc(C#N)ccc1OCC(=O)Nc1cccc(S(=O)(=O)N2CCCC2)c1,inactive,
COc1ccc(/C=C\C(=O)c2c(O)ccc3c(C)cc(=O)oc23)cc1,"inconclusive [cytotoxic, single point]",
CO/N=C/c1ccc(N2CCN(C(=O)c3cccc(C(F)(F)F)c3)CC2)c([N+](=O)[O-])c1,"inconclusive [cytotoxic, single point]",

Compound,Potency,"activity, negative = toxicity"
COc1ccc(-c2cnc3c(NC=O)cc(-c4cc(OC)c(OC)c(OC)c4)cn23)cc1OC,"inconclusive [cytotoxic, single point]",
C=C1C(=O)OC2C1CCC(C)C1C=CC(=O)C12C (stereo not given),active: 20.6 µM,
CCc1ccc(N=Nc2ccc(O)c3[nH]cnc23)cc1,"inconclusive [cytotoxic, single point]",
COc1cccc(CNc2nc3cc(-c4cccc(C(F)(F)F)c4)sc3c(=O)n2C)c1,inactive,
COC(=O)C1CCN(C2=C(NS(=O)(=O)c3ccc(Cl)cc3)C(=O)c3ccccc3C2=O)CC1,"inconclusive [cytotoxic, partial curve]",
CCCCOc1ccc(/C=C/C(=O)OCC(=O)N2CC(=O)Nc3ccccc32)cc1OCC,"inconclusive [cytotoxic, single point]",
CC[C@H](C)C1OC(=O)[C@@H](C)[C@@H](CC)NC(=O)[C@H](C)N(C)C(=O)C(C)(C)C(=O)C(C)NC(=O)[C@H](Cc2ccc(OC)cc2)N(C)C(=O)[C@H](C(C)C)N(C)C(=O)CNC(=O)[C@H](CC(C)C)N(C)C(=O)CNC1=O (stereo not given in full),active: 0.184 µM,
CC(=O)NCc1ccc(S(=O)(=O)N2CCCN(C)CC2)cc1,,inconclusive: 30.2%
CC(C)OCCCNC(=S)Nc1ccc2nc3n(c(=O)c2c1)CCCCC3,inactive,
CC(=O)N1Cc2cc(C(=O)NCc3cccc(F)c3)nc(-c3cccc(C4=CCCC4)c3)c2[C@H]1CCO,"inconclusive [cytotoxic, single point]",
CC(C)(C)C1CCc2c(sc3ncn(N)c(=N)c23)C1 (stereo not given),"inconclusive [cytotoxic, single point]",
Cc1nc2ccccc2n1/N=C/c1ccc([N+](=O)[O-])o1,active: 10 µM,
CN(C)c1ccc(C(=S)NCc2ccco2)cc1,,inactive: 3.01% [at 9.24 µM]
O=C(NNS(=O)(=O)c1cccc(Cl)c1Cl)c1cccc(S(=O)(=O)N2CCOCC2)c1,inactive,
CCN(CC)S(=O)(=O)c1cc(C(=O)Nc2nncs2)c(Cl)cc1Cl,"inconclusive [cytotoxic, single point]",
COc1ccc(/C=N\NC(=O)C2COc3ccccc3O2)cc1O (stereo not given),active: 11.6 µM,
CC(=O)Nc1ccc(NC(=S)NC(=O)c2oc3ccccc3c2C)cc1,,inconclusive: 28.1%
CC(C)C(C(=O)NC1CCCC1)N1CCC(O)(c2ccc(Cl)cc2)CC1 (stereo not given),inactive,
Cc1ccccc1Cn1nnc2c1C(=O)c1ccccc1C2=O,active: 23.1 µM,
CCOC(=O)c1ccccc1NC(=O)Cc1ccc(OC)c(S(=O)(=O)N2CCOCC2)c1,inactive,
COC(=O)c1cc(NC(=S)NCc2ccc(Cl)cc2)cc(C(=O)OC)c1,"inconclusive [cytotoxic, single point]",
Cc1ccc(CN=Cc2[nH]c3ccc(Br)c(Cl)c3c2O)cc1,active: 17.8 µM,
Cc1cc(C)c(OC2(c3ccccc3)OC(=O)c3ccccc32)c(C)c1 (stereo not given),"inconclusive [cytotoxic, single point]",
Cc1cccc(C(=O)NCC(=O)NC2CCN(Cc3ccccc3)CC2)c1,inactive,
CCc1c(C)sc(NC(=O)/C=C/c2ccc3c(c2)OCO3)c1C(=O)OC,"inconclusive [cytotoxic, partial curve, poor fit]",
